Source: US6800434B2, “Peptides as NS3-serine protease inhibitors of hepatitis C virus” (priority 2000, dated 2004)
pKi: −log10 of the molar value. Starred links: 1 amine or outer side, 2 acyl side, 3 side chain; linkers in the order of their positions; H or OH if unused. Non-standard residues stand in square brackets, D forms with d. Residues, ends and D or L forms follow the SMILES beside them. ξ: configuration not given here. *: point of attachment. Pro(trans-4-Ph) = O=C(O)[C@@H]1C[C@@H](c2ccccc2)CN1; Pro(4,4-SCH2CH2S) = O=C(O)[C@@H]1CC2(CN1)SCCS2; X1 = CCC[C@H](N[*:1])C(=O)C(=O)[*:2]; X32 = CS(=O)(=O)CC(N[*:1])C(=O)[*:2]; X3 = CCCC(N[*:1])C(=O)C(=O)[*:2]; Chg = N[CH](C(=O)O)C1CCCCC1; ξChg = NC(C(=O)O)C1CCCCC1; ξPhg = NC(C(=O)O)c1ccccc1; ξE = NC(CCC(=O)O)C(=O)O; ξV = CC(C)C(N)C(=O)O; OtBu = CC(C)(C)O*

Target: Recombinant heterodimeric HCV NS3/NS4A protease (strain 1a) (Hepatitis C virus genotype 1a, UniProt P27958)
Assay: biochemical
Settings: Ki* Range

Compound	pKi
CCC[C@H](NC(=O)[C@@H]1C[C@@H](c2ccccc2)CN1C(=O)[C@@H](NC(=O)[C@@H](NC(=O)[C@H](CCC(=O)OC(C)(C)C)NC(=O)[C@H](CCC(=O)OC(C)(C)C)NC(C)=O)C(C)C)C1CCCCC1)C(=O)C(=O)NCC(=O)O [Compound 84] (Ac-E(OtBu)E(OtBu)V[Chg][Pro(trans-4-Ph)][X1]G-OH)	7.00 to 9.00
CCC[C@H](NC(=O)[C@@H]1C[C@@H](c2ccccc2)CN1C(=O)[C@@H](NC(=O)[C@@H](NC(=O)[C@H](CCC(=O)O)NC(=O)[C@H](CCC(=O)O)NC(C)=O)C(C)C)C1CCCCC1)C(=O)C(=O)NCC(=O)O [Compound 85] (Ac-EEV[Chg][Pro(trans-4-Ph)][X1]G-OH)	7.00 to 9.00
CCCC(NC(=O)[C@@H]1CC2(CN1C(=O)C(NC(=O)C(NC(=O)C(CCC(=O)O)NC(=O)C(CCC(=O)O)NC(C)=O)C(C)C)C1CCCCC1)SCCS2)C(=O)C(=O)NCC(=O)NC(C(N)=O)c1ccccc1 (stereo partly shown) [Compound 87] (Ac-[ξE][ξE][ξV][ξChg][Pro(4,4-SCH2CH2S)][X3]G[ξPhg]-NH2)	7.00 to 9.00
CCCC(NC(=O)C(CS(C)(=O)=O)NC(=O)C(NC(=O)C(NC(=O)C(CCC(=O)O)NC(=O)C(CCC(=O)O)NC(C)=O)C(C)C)C1CCCCC1)C(=O)C(=O)NCC(=O)O (stereo not shown) [Compound 88] (Ac-EEV[Chg][X32][X3]G-OH; configuration not given here)	6.00 to 7.00
